According to the RNAGym collection of RNA variant scans (doi:10.1093/nar/gkz1192):
The source gives no read counts; variants with many changes may rest on few reads.

B1: CPEB3 Ribozyme (parent)
chain: UAACAGGGGGCCACAGCAGAAGCGUUCACGUCGCAGCCCCUGUCAGAUUCUGGUGAAUCUGCGAAUUCUGCUGUAUAUCUC

Variants of: B1
Experiment: self-cleavage, relative activity (ratio to wild type); higher = more cleavage; in vitro, sequencing
How it was run: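 Libraries of CPEB3 self-cleaving ribozyme mutants came from rounds of error-prone PCR and carried barcodes, which DNA sequencing matched to variants. In vitro transcription used T7 RNA polymerase at 37°C for 5 hours, with a further 15 min in DNase I before EDTA stopped the reaction; the ribozymes cleaved during both steps. The RNA was reverse transcribed with template switching and sequenced on Illumina. Relative activity is the cleaved/total read fraction of a variant divided by that of the unmutated ribozyme, averaged over three batches with at least 5 reads.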

| Variant | self-cleavage |
| --- | --- |
| UAACAGGAGGCCACAGCAGUAGCGUUCACGUCGCUGUCCCUGUCAGAUUCUGGUGGAUCUGCGAGUCCUGCUGUAUAUCUC | 0.02 |
| UAACAGGAGGCCACAGCAGGAGCGUUCACGUCGCAGCCCCUGUCAGAUUCUGGUGGGUCAGCGAAUUCUGCUGUAUAUCUC | 0.05 |
| UAACAGGAGGCCACAGCAGGAGCGUUCACGUCGCAGCCCCUGUCAGAUUCUGGUGAAUCCGCGAAUUCUGCUGUAUAUCUC | 0.18 |
| UAACAGGAGGCCACAGCAGAGGCGUUCACGUCGCAGCCCCCGUCAGAUUCUGGUGAAUCUGCGAAUUCUGCUGGAGAUCUC | 0.04 |
| UAACAGGAGGCCACAGCUGAAGCGUUCACGUCGCAACCCCUGUCAGAUUCUGGUGAAUCUGCGAAUUCUGCUAUAUAUCUC | 0.3 |
| UAACAGGAGGCCACAGCAGGAGGGUCCACGUCGCAGUCCCUGUCAGAUUCUGGUGAAUCUGCGAAUUCUGCUGUAUACCCC | 0.04 |
| UAACAGGAGGCCACAGCAGAGGCGUUCACGUCCCAGCCCCUGUCAGAUUCUGGUGAAUCUGCGAAUUCUGCUGUAUAUCUC | 0.06 |
| UAACAGGAGGCCACAGCAGUAGCGUUCAGGUCGCAGCCCCUGUCAGAUUCUGGUGAAUGUGCGAAUUCUGCUGUAUAUCCC | 0 |
| UAACAGGAGGCCACAGCGGAAGCGUUCACGUCGCAGCCCCUGUCAGAUUCUGGUGAAUCUGCGAAUUCUGCUGUUUAUUUC | 0.08 |
| UAACAGGAGGCCACAGCUGAAGCUUUCACGUCGCAGCCCCUGUCAGAUUCUGGUGAAGCUGCGAGUUCUGUUGUAUAUCUC | 0.03 |
| UAACAGGAGGCCACAGCGGAAGCGUACACGUCGCAGCCCCUGUCAGAUUCUGGUGAAUCUGCGAAUUCUGCUGUGUACCUC | 0.22 |
| UAACAGGAGGCCACAGCAGUAGCGUUCACGUCGCACCCCCUGUCAGACUCUGGUGAAUCUGCGACUUCUGCUGUAUAUCUC | 0 |
| UAACAGGAGGCCACAGCAGGAGCGUUCACGUCGCGGCACCUGUCAGAUUCUGGUGAAUCUGCGAAUUCUGCUGUAUAUCUC | 0.05 |
| UAACAGGAGGCCACAGCGGAAGCGUUCACGUCGCAGCCCCUGUCAGAUUCUGGUGGAUCUGCGAACUCUGCUGUAUAUCCC | 0.05 |
| UAACAGGAGGCCACAGCAGGAGCGUUCACGUCGCAGGCCCUGUCAGAUUCUGGUGAAUCUGCGAAUUCUGCUGUAUAUCUC | 0.32 |
| UAACAGGAGGCCACAGCAGUGGCGUUCACGUCGCAGCCCCUGUCAGAUUCUGGUGAAUCUGCGAAUUCCGCUGUAUAUCUC | 0.05 |
| UAACAGGAGGCCACAGCAGUAGCGUUCACGUCGCAGCCCCUGUCAGAUUCCGGUGAGUCUGCGAAUUCUGCUGAAUAUCUC | 0.36 |
| UAACAGGAGGCCACAGCAGCAGCGUUCACCUCGCAGCCCCUGUCAGAUUCUGGUGAAUCUGCGAAUUCUGCAGUAUAUCAC | 0.04 |
| UAACAGGAGGCCACAGCAGUAGCGUUUACGUCGCAGCCCCUGUCAGAUUCUGGUGAAUCUGCGAAUUCUGCAGUAUAUCCC | 0.05 |
| UAACAGGAGGCCACAGCGGAAGCGUUUACGACGCAGCCCCUGCCAGAUUCUGGUGAAUCUCCGAAUUCCGCUGUAUAUCUC | 0.05 |
| UAACAGGAGGCCACAGCGGAAGCGUACACGCCGCAGCCCCUGUCAGAUUCUGGUGAGUCUGCGAAUCCUGCUGUAUAUCUC | 0.07 |
| UAACAGGAGGCCACUGCAGAAGCGUUCACGUCGCAGCCCCUGUCAGAUUCUGGUGAAUCGGCGAAUUCUGCUGUAUAUCUC | 0.06 |
| UAACAGGAGGCCACAGCGGAAGCGUUCACGUCGCAGCCCCUGUCUGAUUCUGGUGAAUCCGCGAAUUCUGCUGUAUAUCCC | 0.06 |

| Variant | self-cleavage |
| --- | --- |
| UAACAGGAGGCCACAGCAGUAGCGUUCACGUCGGAGCCCCUGUCAGAUUCUGGUGAAUCUGCGAAUUCUGCUGUAUAUCUC | 0.06 |
| UAACAGGAGGCCACAGCUGAAGCGUUCACGUCGCUGCCCCAGUCAGAUUCUGGUGAAUCUGCGUAUCCUGCUGUAUAUCUC | 0.03 |
| UAACAGGAGGCCACAGCGGAAGCGCUCACGUCGCAGCCCCUGUCAGAUUCUCAUGAAUCAGCGAAUUCUGCUGUAUAUCUC | 0.03 |
| UAACAGGAGGCCACAGCUGAGGCGUUCACGUCGCAGCCCCUGUCAGAUUCUGGUGAAUCUGCGAAUUCUGCUGUAUAUCUC | 0.17 |
| UAACAGGAGGCCACUGCAGAAGCGUUCACGUCGCAGCCCCUGUCAGAUUCUGGUGAAUCUGCGAAUCCUGCUGUAUAUCUC | 0.17 |
| UAACAGGAGGCCACAGCGGAAGCGUUCACGUCGCAGCCCCUGACAGAUUCUGGUGAAUCUGCGAAUUCUGCUGUAUAUCUC | 0.09 |
| UAACAGGAGGCCACAGCGGCAGCGUUCACGUCGCAGCCCCUGUCAGAUUCUGGUGAAUCUGCGAACUCCGCUGUAUAUCUC | 0.14 |
| UAACAGGAGGCCACAGCAGGAGCGUUCUCGUCGCAGCCGCUGUCAGAUUCUGGUGAAUCUGCGAGUUCUGCUGUAUAUCUC | 0.04 |
| UAACAGGAGGCCACAGCGGAAGCGUUCACGUCGCAGCCCCUGUCAGAUUCUGGUGCAUCUGCGAAUUCUGCUGUAUAUCCC | 0.04 |
| UAACAGGAGGCCACAGCAGGAGCGUUCACGUCGCAGCCCCUGUCAGAUUCUGGUGAAUCUGCGAAUUCUGCUGUAUAUCAC | 0.3 |
| UAACAGGAGGCCACAGCAGUAGCGUUCACGUCGCAGCCCCUGUCAGACUCUGGUGAAUCUGCGAAUUCUGCUGUAUAUCUC | 0.06 |
| UAACAGGAGGCCACAGCAGGAGCGUUCACAUCGCAGCCCCUGUCGGAUUCUGGUGAAUCUGCGAAUUCUGCUGUAUAUCUC | 0.2 |
| UAACAGGAGGCCACAGCAGGAGCGUUCACGUCGCAGCCCCUGUCAGAUUCUGGUGAAUCUGCGAAAUCUGCUGUAUAUCUC | 0.13 |
| UAACAGGAGGCCACAGCAGAGGCGUUCACGUCGCAGCCCCUGUCGGAUACCGGUGAAUCUGCGGAUUCUGCUGUAUAUCUC | 0.05 |
| UAACAGGAGGCCACAGCAGGAGCGUUCACGUCGCAGCCCCCGUCAGAUUCUGGCGAAUCUGCGAAUUCUGCUGUAUGUCUC | 0.05 |
| UAACAGGAGGCCACAGCAGGAGCGUUCACGUCGCAGCCCCUGUCAGAUUCCGGUAAAUCUGCGAAUUCUGCUGUAUAUCUC | 0.31 |
| UAACAGGAGGCCACAGCGGAAGCGUUCACGUCGCAGCCCCUGUCAGACCCUGGUGAAUCUGCGAAUUCUGCUGUAUAUCUC | 0.21 |
| UAACAGGAGGCCACUGCAGAAGCGUUCACGUCGCAGCCCCUGUCAGAUUCAGGCGAAUCUGCGAAUUCUGCUGUAUAUCUC | 0.26 |
| UAACAGGAGGCCACAGCUGAAGCGCUCACGUCGCAGCCCCUGUCUGAUUCUGGUGAAUCUGCGAAUUCUGCAGUAUAUCUC | 0.08 |
| UAACAGGAGGCCACAGCAGGGGCGUUCACGUUGCUGCCCCUGUCGGAUUCUGGCGAAUCUGCGAAUUCUGCUGUAUAUCUC | 0.05 |
| UAACAGGAGGCCACAGCAGUAGCGUUCACGGCGCAGCCCCUGACCGAUUCUGGUGAAUCUGCGAAUUCUGCCGUAUUUCUC | 0.04 |
| UAACAGGAGGCCACAGCAGAGGCGUUCACGUCGCAGCCCCUGUCAGAUUCUGGUGAAUCUACGAAUACUGCUGUAUAUCUC | 0.06 |
| UAACAGGAGGCCACAGCCGAAGCGUCCACGACGCAGCCCCUGUCAGAUUCUGGUGAAUCUGCGAAUUCCGCUGUAUAUCUC | 0.04 |

| Variant | self-cleavage |
| --- | --- |
| UAACAGGAGGCCACAGCAGAGGCGUUCACGUCGCAGUCCCUGACAGAUUCUGGUGAAUCAGCGAACACUGCUGUAUAUCUC | 0.04 |
| UAACAGGAGGCCACAGCGGAAGCGUUCACGUCGCAGCCCCUGUCAGACUCUGGUGAGUCUGCGUAUUCUGCUGUAUAUCUC | 0.09 |
| UAACAGGAGGCCACAGCAGGAGCGUUCACGUCGCAGCCCCAGUCAGAUUCUGGUGUAUCCGCGAAUUCUGCUGUAUAUCUC | 0.06 |
| UAACAGGAGGCCACAGCUGAAGCGUUCACGUCGCAGCCCCUGUCAGAUUCUGGUGAAUCUGCGAAUCCUGCUGUAUAUCUC | 0.07 |
| UAACAGGAGGCCACAGCGGAAGCGUUCACGUCGCAGCCCCUGUCAGAUUCUGGUGGAUCUGCGGAUUCUGCUGUAUAUCUC | 0.06 |
| UAACAGGAGGCCACAGCCGAAGCGUUCACGUCGCAGCCCCUGUCAGAUUCUGGGGAAUCUGCGAAUUCUGCUAUAUAUCUC | 0.54 |
| UAACAGGAGGCCACAGCGGAAGCGUUCGCGUCGCAGCCCCUGUCAGAUUCAGGUGAAUCUGCGAAUUCUGCUGUAUGUCUC | 0.06 |
| UAACAGGAGGCCACAGCUGAAGCGUUCACGUCGCAGCCCCUGUCAGAUUCUGGUGAAUCCGCGAAUUCUGCUGUAUAUCUC | 0.2 |
| UAACAGGAGGCCACAGCUGAAGCGUUCACGUCGCAGCCCCUGUCAGAUUCUGGUGAAUCAGCGAAUUCUGCUGUAUGUCUC | 0.18 |
| UAACAGGAGGCCACAGCAGAGGCGUUCGCGUCGCAGCCCCGGUCAGAUCCUGGUGAAUCUGCGAAUACUGCUGUGUAUCUC | 0.02 |
| UAACAGGAGGCCACAGCAGAGGCGUUCACGUCGCAGCCCCUGUCAGAUUCUGGUGGACCUGCGAAUUCUGCUGUAUAUCUC | 0.08 |
| UAACAGGAGGCCACAGCAGAGGCGUUCACGUCGCAGCCCCCGUCGGAUUCUGGUGAAUCAGCGAAUUCUGCUGUAUAUCUC | 0.07 |
| UAACAGGAGGCCACAGCAGGAGCGUUCACGUCCCAGCCCCUGUCAGAUUCUGGUGAAUCUGCGAAUUCUGCUGAAUAUCUC | 0.07 |
| UAACAGGAGGCCACAGCUGAAGCGUUCACGUCGCAGCCCCUGUCAGAUUCUGGUGAACCUGCGAAUUCUGUAGUAUAUCCC | 0.12 |
| UAACAGGAGGCCACAGCAGGAGCGUUCACGUCGCAGCCCCCGUCAGAUUCUGGUGAAUCUGCGAAUUCUGCUGUAAAUCUC | 0.41 |
| UAACAGGAGGCCACAGCCGAAGCGUUCACGCCGCAGCCCCUGUCAGAUUCUGGUGAAUCUGCGAAUUCUGCUGUAUGCCUC | 0.07 |
| UAACAGGAGGCCACAGCGGAAGCGUUCACGUCGGAGCCCCUGUCAGAUUCUGGCGAAUCUGCGAGUUCUGCUGUACAUCUC | 0.4 |
| UAACAGGAGGCCACAGCGGAAGAGUUCACGUCGCAGCCCCUGUCGGAUUCUGGUGAAUCCGCGAAUUCUGCUGUAUAUCUC | 0.05 |
| UAACAGGAGGCCACAGCAGAGGCGCUCCCGUCGCAGCCCCUGUCAGAUUCUGGUGAAUCUGCGAAUUCUGCCGUAUAUCUC | 0.06 |
| UAACAGGAGGCCACAGCAGAGGCGUUCACGUCGCAGCCCCUGUCAGAUCCUGGUGAAUCUGCGAAUUCUGCUGUAUAUCUC | 0.07 |
| UAACAGGAGGCCACAGCGGAAGCGUCCACGUCGCAGCCCCUGUCAGAUUCUGGUGAAUCUGCGAAUUCUGCUGUAUAUCUC | 0.06 |
| UAACAGGAGGCCACAGCGGAAGCGUUCACGUGGCAGCCCCGGUCAGAUUCUGGUGAAUCUGCGAAUUCUGCUGUAUACCUC | 0.04 |
